The supplement of paper PMC11417369
± gives the standard deviation of the averaged measurements. The list shows a part of the results.

test system: PfAP2-G AP2 domain (GST-tagged); experiment: gcPBM binding intensity (ln(normalized median fluorescence intensity)); higher = stronger DNA binding
Procedure, shortened: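 GST-fused DNA-binding domains of P. falciparum, expressed in E. coli, were applied at about 25 μg on average for 1 h to an Agilent 4 × 180k array of primer-extended double-stranded 36-bp intergenic genomic probes and negative controls. Binding intensity is the highest Masliner-normalised natural-log median intensity across replicate spots of either probe orientation, measured with Alexa488 anti-GST antibody and a 488 nm scan.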

| Sequence | gcPBM binding intensity (ln) |
| --- | --- |
| CATTAACATTTTATTACACACAATAATTTATAAGTA [CACACA_site4083] | 9.91 ± 0.042 |
| CTATTATAATATTTTACACACCATGTAAAATATATA [CACACA_site3206] | 9.91 ± 0.13 |
| ATCATTCTTCATTTGTCACACATGATAAAAATATAT [CACACA_site4953] | 10.2 ± 0.23 |
| CTATTTTGGATGTGTACACATATATATATTTATATT [CACACA_site5706] | 11.7 ± 0.85 |
| ATATAAAAAGGAAAAAGTACAAAAAAATGTTTGTGA [XGTACX_site8552] | 11.2 ± 0.74 |
| AAGAAAATATATTCACATGAAGAATTAAAATAAAAC [TGCATGCA_negctrl_site119] | 9.93 ± 0.057 |
| TTTTGTACAAAAATAATGCACACTATATCAAGTTTT [CACACA_site3595] | 10.9 ± 0.77 |
| AAGCATACATCAAGCACACACACACCCACACCCACA [CACACA_site372] | 10.2 ± 0.34 |
| AAATATATCAATATATATATATATATATATATATAT [XGTACX_negctrl_site544] | 9.82 ± 0.67 |
| TAGGCCTTAAATCGTGTGCACTTTTTTTTTTTTTTT | 10.9 ± 0.69 |
| TATGTGCCAAAACACACACACATATATATATATATA [CACACA_site469] | 10.4 ± 0.76 |
| CAAATTATTATTTAAGCACACATGTTTATTTTTTTT [CACACA_site2672] | 9.92 ± 0.13 |
| TTTTTTTTTTTTTTTTTTGGTGAGAGAAGAAAATTC [CACACA_negctrl_site950] | 9.97 ± 0.59 |
| TATGGTAAATACAACACACACACATATGTATTTATA [CACACA_site4666] | 10.18 ± 0.071 |
| ATTTATTTATATAATACACACAAATATCTTAATTAA [CACACA_site3993] | 10.1 ± 0.32 |
| TGGATATAAAACAACGTGCACTTGGTTGATTTTAAA [GTGCAC_site9900] | 10.09 ± 0.092 |
| ACCTGTAAAAATGTTTATATATATATATATATATAT [CACACA_negctrl_site1500] | 10.1 ± 0.55 |
| TTAAGGATTAAGGTGTGTACATATAAATATTATATA [XGTACX_site7532] | 11.4 ± 0.76 |
| CACAGACACGGACACACACACACACCCATATATATA [CACACA_site4354] | 11.2 ± 0.79 |
| ATACAAGAATTAAACACACACAAAATATAAATTCTT [CACACA_site3005] | 9.61 ± 0.49 |
| AGCAACCTGAAAAAATTACTCTTTCTTAAACAAATT [XGTACX_negctrl_site266] | 9.785 ± 0.078 |
| AAAAAAAAAAAAAATTGTACATAATAAAAATATGGA [XGTACX_site3189] | 11 ± 0.64 |

| Sequence | gcPBM binding intensity (ln) |
| --- | --- |
| TGTTTATTCTTTAAATATTATTCAAATACTACAAGT [CACACA_negctrl_site746] | 10.2 ± 0.44 |
| GGATTGATAAGTGGTACACACATATAGATTATAGAT [CACACA_site7367] | 11.6 ± 1.1 |
| CGGCACATTATATATACACACATATAAATAAATACA [CACACA_site4477] | 9.95 ± 0.13 |
| TATATATATAAGTGCACACTGAACCAAGAAAATTAT [CACACA_site3008] | 10.4 ± 0.28 |
| CGTATGCACAAATTATGTACTTATATATATATATAT [XGTACX_site2348] | 11.3 ± 0.91 |
| AAAAAAAAAAAACATACACACAAATAAATACATACA [CACACA_site6073] | 10 ± 0.18 |
| TAAATATATATATGTGTGCACTTCTTCATTTTAATA [GTGCAC_site9537] | 10.4 ± 0.3 |
| AATATTAAATGAAAAAGTACAAACAGTCCTATATTA [XGTACX_site1926] | 11.3 ± 0.8 |
| ATTTATATAAAGAATGTACACACAGAAATGCACCCA [CACACA_site8715] | 11.3 ± 0.78 |
| CATATTTTTATAAATTGTACGTATATTATATATATA [XGTACX_site1816] | 11.5 ± 0.79 |
| GCATTGTCCATGCGCACACACTACTAGAATAATATG [CACACA_site5932] | 10.8 ± 0.4 |
| AAACCGTGGGAGCACACACACACACCGACACATATA [CACACA_site4338] | 10.5 ± 0.37 |
| GTTTTTTATAATTGTAGTACAAGAAGATATTTTTAT [XGTACX_site5443] | 11.5 ± 0.86 |
| TGCAATTGTAAAGGCGCACACATATATATATATATA [CACACA_site4894] | 10.3 ± 0.29 |
| ATATATATATATATATGTACATATTTCTCCATTTTT [XGTACX_site2869] | 11.3 ± 0.79 |
| CCATCTAAACACAACTCGAGTTGGATGTGTGAACTT [XGTACX_negctrl_site83] | 10.1 ± 0.25 |
| TCCATTTATAAATTAGCATGCAATCTATGTCTGATA [TGCATGCA_site1045] | 9.64 ± 0.13 |
| ATCAAAAGAAAACACACACACATACAGATATATATA [CACACA_site5974] | 9.8 ± 0.057 |
| AATTAATGGGTACATACACACATATATACCTACATA [CACACA_site4572] | 11.3 ± 0.93 |
| GATATATACTCCATCACACACCAAAAAGAAAAAAGA [CACACA_site7242] | 10.2 ± 0.46 |
| ATATATCAATATAAAAGTACAAACAAAAAATAATCA [XGTACX_site7559] | 11.3 ± 1 |
| TAAATATTTTTATGGGTGCGTTCTTTAGCGCAATTT | 10.2 ± 0.19 |
